# Source: publication PMC4336329 (PLoS ONE, 2015)
# Hit rate of the full screen: of about 310,000 compounds, about 2,200 (0.71%) showed an effect of 50% or more. The effect is printed as a negative number. The list shows a part of the results.
# Molecular target: human ether-à-go-go-related gene (hERG) potassium channel (human, UniProt Q12809)
# Assay: primary screen, population patch clamp on CHO cells stably expressing hERG
# human ether-à-go-go-related gene (hERG) potassium channel, sequence (Q12809 whole entry, looked up): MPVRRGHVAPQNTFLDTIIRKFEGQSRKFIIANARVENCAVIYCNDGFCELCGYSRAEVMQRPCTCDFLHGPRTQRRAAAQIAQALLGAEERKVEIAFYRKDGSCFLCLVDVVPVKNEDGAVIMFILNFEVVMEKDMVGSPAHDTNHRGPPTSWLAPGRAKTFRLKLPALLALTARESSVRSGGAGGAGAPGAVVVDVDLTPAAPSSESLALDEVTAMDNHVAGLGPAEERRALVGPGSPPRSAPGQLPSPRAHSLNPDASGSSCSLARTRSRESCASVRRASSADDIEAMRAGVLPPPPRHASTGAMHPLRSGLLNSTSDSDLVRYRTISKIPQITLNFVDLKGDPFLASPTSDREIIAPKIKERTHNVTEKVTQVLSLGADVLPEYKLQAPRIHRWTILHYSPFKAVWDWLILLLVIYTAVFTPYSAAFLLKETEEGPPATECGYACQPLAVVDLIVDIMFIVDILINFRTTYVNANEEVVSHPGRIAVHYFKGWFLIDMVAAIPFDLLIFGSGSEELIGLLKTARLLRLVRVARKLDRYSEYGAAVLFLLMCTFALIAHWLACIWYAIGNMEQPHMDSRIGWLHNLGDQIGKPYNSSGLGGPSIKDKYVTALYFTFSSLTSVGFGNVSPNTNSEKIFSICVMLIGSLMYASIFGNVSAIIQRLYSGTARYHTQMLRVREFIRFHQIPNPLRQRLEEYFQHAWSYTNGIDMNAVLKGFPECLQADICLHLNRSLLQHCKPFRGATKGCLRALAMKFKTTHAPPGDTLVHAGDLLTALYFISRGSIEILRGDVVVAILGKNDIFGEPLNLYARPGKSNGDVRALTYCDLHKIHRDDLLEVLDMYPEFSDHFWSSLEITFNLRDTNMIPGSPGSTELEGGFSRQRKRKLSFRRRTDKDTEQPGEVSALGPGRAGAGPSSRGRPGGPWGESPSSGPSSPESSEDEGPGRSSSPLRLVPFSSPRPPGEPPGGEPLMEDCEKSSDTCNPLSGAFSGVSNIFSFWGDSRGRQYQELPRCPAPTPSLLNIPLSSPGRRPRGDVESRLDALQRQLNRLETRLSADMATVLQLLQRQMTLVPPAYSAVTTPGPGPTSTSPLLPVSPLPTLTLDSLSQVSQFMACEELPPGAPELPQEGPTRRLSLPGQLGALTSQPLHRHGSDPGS
row,SMILES,"hERG current change (%, negative = inhibition) at 1uM"
1,COc1ccc(C(C(=O)NC2CCCCC2)N(C(=O)c2ccco2)c2ccccc2C(C)=O)cc1 (stereo not drawn),10.2%
2,CN1CCN(S(=O)(=O)c2csc(C(N)=O)c2)CC1,13%
3,CCCC12CN3CC(CCC)(CN(C1)C3C(O)C(O)C(O)CO)C2=O (stereo not drawn),5.69%
4,Cc1nc2sc(C(c3cccc(F)c3)N3CCC(C)CC3)c(O)n2n1 (stereo not drawn),3.46%
5,Cc1ccc2nc(N3CCN(S(=O)(=O)c4ccc5c(c4)OCCO5)CC3)c(C#N)cc2c1,11.1%
6,O=C1NC(=O)C2C1C(c1ccccc1)N1C3C(=O)NC(=O)C3C(c3ccccc3)N21 (stereo not drawn),10.3%
7,COc1ccc(NC(=S)N/N=C/c2cccn2Cc2ccccc2F)cc1,7.36%
8,CSc1nsc(SCC(=O)Nc2ccc(O)c(C(=O)O)c2)n1,6.95%
9,COc1ccc(N(C)S(=O)(=O)c2ccc3c(c2)NC(=O)CO3)c(OC)c1,6.48%
10,CC1(C)CC(n2c(NCCO)nc3c(c2=O)C2(CCCC2)Cc2ccccc2-3)CCO1 (stereo not drawn),13.3%
11,Cn1c(=O)c2c(nc(NCCCO)n2Cc2cccc(Br)c2)n(C)c1=O,11%
12,COc1ccc(Cc2noc(CN3CCCC(OCc4ccccn4)C3)n2)cc1OC (stereo not drawn),1.93%
13,CCOC(=O)C1CCN(c2nc3ccccc3n2CC(=O)c2ccccc2)CC1,12.5%
14,COc1ccc(NC(=O)NN2CCN(C)CC2)cc1OC,9.68%
15,CCOc1ccccc1NS(=O)(=O)c1c[nH]c(C(=O)OC)c1,6.6%
16,CC(Oc1ccc(F)cc1)C(=O)Nc1ccc(N2CCOCC2)cc1N1CCOCC1 (stereo not drawn),4.3%
17,COC(=O)CCCNC(=O)c1ccc(OC2CCN(CCc3ccccc3)CC2)cc1,-12.7%
18,O=c1[nH]c(=O)n(-c2ccccc2)c(O)c1/C=C1/C(c2ccccc2)=Nc2ccccc21,5.01%
19,O=C1C=C(c2cc(Cl)cc(Cl)c2)C[C@@H](c2ccc(F)cc2)C1,16.8%
20,O=C(CNC(=O)c1cccc(Cl)c1)NCCCSc1ccccc1,1.57%
21,COc1ccc(CNS(=O)(=O)c2c(C)[nH]c(C)c2C(=O)N2CCCCC2)cc1,8.95%
22,O=C(CCCN1C(=O)CCC1=O)Nc1ccccc1F,13.5%
23,NC(=O)c1nn(-c2ccccc2)nc1NC(=O)CSc1nnnn1-c1ccc(Cl)cc1,-34.8%
24,CCN(CC)CCCn1c2c(c(SCC(=O)Nc3ccc4c(c3)OCCO4)nc1=O)CCC2,-16.7%
